Reference: the supplement of paper PMC12067230
This is a noisy data set.
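Further: [psi-pin-] Saccharomyces cerevisiae expressing SupN fusions, induced by 100 µM Cu2SO4, selected 7 d at 30 °C without adenine and uracil, scored by deep sequencing of output versus input.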

Assay: amyloid nucleation score relative to library mode (yeast Sup35 reporter selection) (log enrichment difference); higher = more amyloid nucleation; sequences are the first 22 residues of the Bri2 peptide extended by up to 12 random residues
Settings: random library (experiment): 1;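 active = nucleation score significantly above 0 at FDR 0.05; inactive = not significantly above 0 or absent from output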
With EASNCFAIRHFENKFAVETLICVRFSAMRLCLRG the amyloid nucleation score was -0.111.
For EASNCFAIRHFENKFAVETLICLMPE, the amyloid nucleation score was “inactive”.
For EASNCFAIRHFENKFAVETLICGW, the amyloid nucleation score was 1.66.
In the case of EASNCFAIRHFENKFAVETLICCWM, the amyloid nucleation score is reported as 7.66.
In the case of EASNCFAIRHFENKFAVETLICLSRCECRYDGPS, the amyloid nucleation score is reported as 3.68.
EASNCFAIRHFENKFAVETLICFCCVRGDRVFTW gave an amyloid nucleation score of 8.33.
With EASNCFAIRHFENKFAVETLICHVTTPSATFR the amyloid nucleation score was 2.69.
In the case of EASNCFAIRHFENKFAVETLICGMDSCH, the amyloid nucleation score is reported as “inactive”.
Sequence EASNCFAIRHFENKFAVETLICCAT has an amyloid nucleation score of 4.49.
For EASNCFAIRHFENKFAVETLICHQDCV, the amyloid nucleation score was “inactive”.
For EASNCFAIRHFENKFAVETLICGLMMILTRTQVG, the amyloid nucleation score was “inactive”.
Sequence EASNCFAIRHFENKFAVETLICVTGTMSTRRRWC has an amyloid nucleation score of 4.46.
For EASNCFAIRHFENKFAVETLICLAYWEHECSAEW, the amyloid nucleation score was 0.0198.
In the case of EASNCFAIRHFENKFAVETLICQMNYSDNLWSCG, the amyloid nucleation score is reported as -0.295.
For EASNCFAIRHFENKFAVETLICGTVCLKCSVYGL, the amyloid nucleation score was “inactive”.
In the case of EASNCFAIRHFENKFAVETLICPSTWADTALPWG, the amyloid nucleation score is reported as “inactive”.
In the case of EASNCFAIRHFENKFAVETLICTTGICRTYVQIL, the amyloid nucleation score is reported as “inactive”.
In the case of EASNCFAIRHFENKFAVETLICGMLGECRREWYM, the amyloid nucleation score is reported as “inactive”.
For EASNCFAIRHFENKFAVETLICWIFTDTFRAMWS, the amyloid nucleation score was “inactive”.
For EASNCFAIRHFENKFAVETLICWK, the amyloid nucleation score was “inactive”.
With EASNCFAIRHFENKFAVETLICARTVYGTGCPWA the amyloid nucleation score was “inactive”.
For EASNCFAIRHFENKFAVETLICESGWEVDSQPLH, the amyloid nucleation score was “inactive”.
With EASNCFAIRHFENKFAVETLICCRYAISSVCVGH the amyloid nucleation score was “inactive”.
In the case of EASNCFAIRHFENKFAVETLICCCEGKLMGAWVA, the amyloid nucleation score is reported as “inactive”.
In the case of EASNCFAIRHFENKFAVETLICYDLLRAL, the amyloid nucleation score is reported as “inactive”.
With EASNCFAIRHFENKFAVETLICLFKWGVVKRWRC the amyloid nucleation score was “inactive”.
EASNCFAIRHFENKFAVETLICLRQTGTQFAWV gave an amyloid nucleation score of 2.64.
EASNCFAIRHFENKFAVETLICCGMFRYSLGNGR gave an amyloid nucleation score of 8.58.
EASNCFAIRHFENKFAVETLICWCGCRKGGFRDS showed an amyloid nucleation score of 4.66.
For EASNCFAIRHFENKFAVETLICGNEYWPIYVLFN, the amyloid nucleation score was “inactive”.
EASNCFAIRHFENKFAVETLICCTRTGVASSRGQ showed an amyloid nucleation score of 3.81.
In the case of EASNCFAIRHFENKFAVETLICVDWSNVGYSRAQ, the amyloid nucleation score is reported as 3.24.
In the case of EASNCFAIRHFENKFAVETLICKVHCTLVPRARG, the amyloid nucleation score is reported as “inactive”.
In the case of EASNCFAIRHFENKFAVETLICPWSFAYTLRGIW, the amyloid nucleation score is reported as “inactive”.
For EASNCFAIRHFENKFAVETLICIASIMWR, the amyloid nucleation score was “inactive”.
With EASNCFAIRHFENKFAVETLICVDLLFV the amyloid nucleation score was “inactive”.
Sequence EASNCFAIRHFENKFAVETLICFF has an amyloid nucleation score of 7.75.
With EASNCFAIRHFENKFAVETLICRTMDYK the amyloid nucleation score was “inactive”.
For EASNCFAIRHFENKFAVETLICLLWCVQGRSYGW, the amyloid nucleation score was “inactive”.
EASNCFAIRHFENKFAVETLICTSMFDLGYVGGV showed an amyloid nucleation score of 6.41.
In the case of EASNCFAIRHFENKFAVETLICCHWNLIGMVWWS, the amyloid nucleation score is reported as 6.72.
With EASNCFAIRHFENKFAVETLICALFDDSGTVRSG the amyloid nucleation score was “inactive”.
Sequence EASNCFAIRHFENKFAVETLICFTGCCC has an amyloid nucleation score of 5.72.
Work on EASNCFAIRHFENKFAVETLICGRHQTGFVEGRS yielded an amyloid nucleation score of -0.372.
In the case of EASNCFAIRHFENKFAVETLICVYRGALKRILGM, the amyloid nucleation score is reported as “inactive”.
For EASNCFAIRHFENKFAVETLICPMSHMKD, the amyloid nucleation score was “inactive”.
With EASNCFAIRHFENKFAVETLICPQKLYTLLLATQ the amyloid nucleation score was -0.207.
In the case of EASNCFAIRHFENKFAVETLICKRAYALRSLYVM, the amyloid nucleation score is reported as “inactive”.
With EASNCFAIRHFENKFAVETLICVKWLRMLSWVVG the amyloid nucleation score was “inactive”.
With EASNCFAIRHFENKFAVETLICFAMLMVKETAWV the amyloid nucleation score was “inactive”.
For EASNCFAIRHFENKFAVETLICPMTFSSFVCADK, the amyloid nucleation score was 6.34.
With EASNCFAIRHFENKFAVETLICVYDLMTE the amyloid nucleation score was “inactive”.
For EASNCFAIRHFENKFAVETLICHSAVSADVKCGV, the amyloid nucleation score was “inactive”.
For EASNCFAIRHFENKFAVETLICGVVLPYCPWALL, the amyloid nucleation score was “inactive”.
In the case of EASNCFAIRHFENKFAVETLICAM, the amyloid nucleation score is reported as “inactive”.
For EASNCFAIRHFENKFAVETLICRN, the amyloid nucleation score was “inactive”.

Same assay, conditions: random library (experiment): 2
For EASNCFAIRHFENKFAVETLICWVSFRWRDSSKG, the amyloid nucleation score was “inactive”.
EASNCFAIRHFENKFAVETLICMVGLMCSSCRWT gave an amyloid nucleation score of 2.78.
For EASNCFAIRHFENKFAVETLICFRRTQTCGFFDR, the amyloid nucleation score was “inactive”.
For EASNCFAIRHFENKFAVETLICHKWILRHYYGFG, the amyloid nucleation score was “inactive”.
